According to PMC4336329 (PLoS ONE, 2015):
Out of some 310,000 compounds screened, about 14,000 (4.5%) showed an effect of 50% or more. The effect is printed as a negative number. This is one part of the list.

Target: human ether-à-go-go-related gene (hERG) potassium channel (human, UniProt Q12809)
Test: primary screen, population patch clamp on CHO cells stably expressing hERG
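Further: peak tail current of the secondary pulse compared with the same well before compound.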

Sequence of human ether-à-go-go-related gene (hERG) potassium channel (Q12809 whole entry, looked up): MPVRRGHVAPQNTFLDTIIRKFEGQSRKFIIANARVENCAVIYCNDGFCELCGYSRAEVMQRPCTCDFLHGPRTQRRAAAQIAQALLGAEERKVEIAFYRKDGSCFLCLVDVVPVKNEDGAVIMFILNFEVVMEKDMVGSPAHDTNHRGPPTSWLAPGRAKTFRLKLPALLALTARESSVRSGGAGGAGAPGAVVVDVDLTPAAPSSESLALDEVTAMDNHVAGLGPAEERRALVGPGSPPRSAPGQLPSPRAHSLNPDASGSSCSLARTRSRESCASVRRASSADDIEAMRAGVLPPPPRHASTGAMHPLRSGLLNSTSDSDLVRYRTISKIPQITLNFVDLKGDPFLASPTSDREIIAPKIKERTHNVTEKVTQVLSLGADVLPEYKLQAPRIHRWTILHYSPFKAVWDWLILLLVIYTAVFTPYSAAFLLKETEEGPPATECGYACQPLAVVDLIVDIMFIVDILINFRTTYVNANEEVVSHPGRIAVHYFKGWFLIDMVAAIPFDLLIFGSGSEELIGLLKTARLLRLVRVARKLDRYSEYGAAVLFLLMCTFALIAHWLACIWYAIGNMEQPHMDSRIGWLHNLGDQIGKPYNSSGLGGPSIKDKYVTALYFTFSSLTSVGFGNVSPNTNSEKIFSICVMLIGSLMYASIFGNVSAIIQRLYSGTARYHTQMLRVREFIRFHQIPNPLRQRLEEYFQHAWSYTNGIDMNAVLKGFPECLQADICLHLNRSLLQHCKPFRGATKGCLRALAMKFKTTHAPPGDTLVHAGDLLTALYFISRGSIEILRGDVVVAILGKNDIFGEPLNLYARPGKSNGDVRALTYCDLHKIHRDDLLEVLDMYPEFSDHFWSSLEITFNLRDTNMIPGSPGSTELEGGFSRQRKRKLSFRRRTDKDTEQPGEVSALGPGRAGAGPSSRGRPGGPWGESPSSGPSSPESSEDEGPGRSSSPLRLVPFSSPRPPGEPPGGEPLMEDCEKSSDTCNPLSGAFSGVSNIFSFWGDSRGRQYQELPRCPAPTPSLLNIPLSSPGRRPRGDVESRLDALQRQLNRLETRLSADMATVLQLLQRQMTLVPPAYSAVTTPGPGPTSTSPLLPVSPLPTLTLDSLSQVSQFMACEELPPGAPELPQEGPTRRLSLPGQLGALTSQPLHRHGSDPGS

SMILES | hERG current change (%, negative = inhibition) at 10uM [%]
COCCCNc1nc2c(-c3cccc(C)c3)nnn2c2ccccc12 | 11.1
NC(=NCc1ccco1)NC(=O)c1ccccc1 | 25.8
Cc1ccccc1CC1(CO)CCCN(C(=O)c2ccccc2Cl)C1 (stereo not shown) | -81.5
CN(C)Cc1nc2c(c(=O)[nH]1)C1(CCCCC1)Cc1ccccc1-2 | -11.7
CC1CCN(CC(C)OC(=O)c2ccc3c(c2)OCCO3)CC1.Cl (stereo not shown) | -5.31
O=C(NCCc1csc(-c2cccc(F)c2)n1)c1ccco1 | -4.61
O=C(COC(=O)C1=COCCO1)NC(=O)c1ccc(OC(F)F)cc1 | 6.95
COc1ccc(/C=C2\SC(=S)N(CCC(=O)N(CCO)c3ccccc3)C2=O)cc1OC | 18.4
CCCn1nnc(NC(=O)c2ccc3c(c2)OCO3)n1 | 15.6
CC(CC(=O)O)CC(=O)Nc1ccc(S(N)(=O)=O)cc1 (stereo not shown) | 14.1
O=C(Nc1nnc(-c2ccc(Cl)s2)o1)C1CC1 | 5.76
Cc1nnsc1C(=O)Nc1ccc(S(=O)(=O)N2CCCCC2)cc1 | 16.9
Cc1cc(C)cc(OC2CCCCC2NS(=O)(=O)c2ccccc2)c1 (stereo not shown) | -6.55
O=C(CSc1nnc(-c2ccccn2)o1)Nc1ccccc1Cl | 7.2
CCn1cc(C(=O)NCC(OC)OC)c(=O)c2cc(S(=O)(=O)N(C)C3CCCCC3)ccc21 | -44.2
COc1cccc(C(=O)N2CCN(C3CCCCC3)CC2)c1.O=C(O)C(=O)O | -13.5
CCOC(=O)c1cnc2ccc(C)cc2c1N(C)Cc1ccccc1 | -1.01
Cc1cc(OCC(=O)Nc2cc(-c3nn4c(C)nnc4s3)ccc2C)ccc1Cl | -0.386
CCN1CCc2ccccc2C1 | 11.7
O=C(CCC1COc2ccccc2O1)N1CCCC1 (stereo not shown) | -3.13
CCc1nc2c(sc3nc4c(cc32)COC(C)(C)C4)c(=O)n1CCN(CC)CC | -38.1
Cc1cc(C)n2nc(SCC(=O)Nc3ccc(S(=O)(=O)N(C)C)cc3)nc2n1 | -32.7
O=C(O)c1c[nH]ccc1=O | 6.89

SMILES | hERG current change (%, negative = inhibition) at 10uM [%]
CCOP(=O)(c1ccccc1)c1nc(-c2ccccc2C)oc1N1CCCCC1 (stereo not shown) | 0.633
O=C(C1CCCN(S(=O)(=O)c2cccs2)C1)N1CCc2ccccc2C1 (stereo not shown) | -41.1
C[C@H](C(=O)CC(=O)OC(C)(C)C)[C@H](O)c1ccccc1 | -18.5
C1CC(CN2CCOCC2)CN(Cc2nc(CC3CC3)no2)C1 (stereo not shown) | 19
Cc1ccnc(NC(=O)c2cccc(NC(=O)c3ccccc3C)c2)c1 | 8.61
Cc1ccc(N=Cc2cc(Cc3ccccc3Cl)cc([N+](=O)[O-])c2O)c(O)c1 | 23.7
CCCCN(CC)C(=O)c1cc2c(=O)n3cccc(C)c3nc2s1 | -0.924
O=C(NC1CCS(=O)(=O)C1)c1cccc(Br)c1 (stereo not shown) | 7.43
COc1ccc(CNC(=O)CCSCc2ccccc2C)cc1 | -17.8
CCc1nnc(NC(=O)CCC(=O)Nc2ccc(Cl)cc2)s1 | 18.3
COc1ccccc1N1CCN(C(=O)/C=C/c2cccs2)CC1 | -19.2
COC(=O)[C@@H]1Cc2c([nH]c3ccccc23)C(C)N1C(=O)c1ccccc1 (stereo partly shown) | 3.27
Cc1nn2c(-c3ccncc3)ccnc2c1Br | -1.19
COc1ccc(OCCN(C)Cc2c(O)ccc3ccccc23)cc1 | 19
Cc1csc(NC(=O)C(NS(=O)(=O)c2ccc(Br)s2)c2ccccc2)n1 (stereo not shown) | -1.44
CCCc1nnc(NC(=O)CCC(=O)NC2CCCCCC2)s1 | 13.7
Cc1cc(C(=O)CCl)c(C)n1Cc1ccco1 | 3.06
CC1CCCCC12NC(=O)N(CC(=O)c1ccc(Cl)s1)C2=O (stereo not shown) | 12.9
Cc1cccc(/C(N)=N/OC(=O)COc2ccc(Cl)c(C)c2)c1 | 13.2
COc1cc(/C=C/C(=O)OCC(=O)NC(=O)NC(C)C)cc(OC)c1OC | 36.4
COc1ccc(CCNS(=O)(=O)c2cccc(C)c2)cc1OC | 9.8
O=C(C1CCCN1C(=O)c1cccs1)N1CCc2ccccc21 (stereo not shown) | 5.02
CC(C)NS(=O)(=O)c1ccc(Br)c(C(=O)OC(C)C(=O)NC2CCCCC2C)c1 (stereo not shown) | -1.13

SMILES | hERG current change (%, negative = inhibition) at 10uM [%]
CN1CCN(C(=O)/C(=C\c2cccnc2)NC(=O)c2cccc(Br)c2)CC1 | -4.02
Cc1ccccc1NC(=O)Cc1nc(CN(C)CC(=O)Nc2cccc(F)c2)cs1 | -20.2
COc1ccc(NS(=O)(=O)c2c(C)cc(C)cc2C)cn1 | -17.2
Cc1cccc(CCN=C(N)NS(=O)(=O)c2ccccc2)c1 | 10.1
CN1CCC(=O)N([C@H](CC#N)c2ccccc2)CC1 | 16.2
COc1ccc(S(=O)(=O)N2CCC3(CC2)OCCN3S(=O)(=O)c2c(C)cc(C)cc2C)cc1 | 10.4
Cc1ccc(S(=O)(=O)NNc2nnc(C)c(=O)[nH]2)cc1 | 17.3
Cc1ccc(O)c(C(=O)CC(=O)c2cccc(F)c2)c1 | 14.7
COc1ccc(C(=O)Nc2ccc3c(c2)nc2n3CCSC2)cc1 | -24.7
O=C(c1ccc2c(c1)OCO2)N1CCN(c2cccc(C(F)(F)F)c2)CC1 | -53.8
O=C(NC1CCCCCCC1)c1ccco1 | -13
Cc1csc(NC(=O)Cn2nc(C)c([N+](=O)[O-])c2C)n1 | 8.42
CSc1ncc(C(=O)NCCCc2ccccc2)c(C)n1 | 6.8
CCN(c1ccccc1)S(=O)(=O)c1ccc(OC)c(NC(=O)CN2C(=O)NC(C)(C)C2=O)c1 | 4.75
CC1=NN(C(N)=S)C(=O)C1N=Nc1c(C)n(C)n(-c2ccccc2)c1=O (stereo not shown) | 11.7
CCOc1ccc(-n2nc(C(=O)NC3CCCCC3)c3ccccc3c2=O)cc1 | 28.7
Cn1cccc1Cc1nnc(SCC(=O)Nc2ccc(F)cc2F)n1-c1ccc(F)cc1 | -40.9
Cc1ccsc1/C=N/NC(=O)CSCc1ccc(Cl)cc1 | 12.7
CCN1C(=O)C2(SC(NC(C)=O)=NN2C(C)=O)c2cc(C)cc(C)c21 (stereo not shown) | 6.22
O=[N+]([O-])c1ccc(N2CCN(S(=O)(=O)c3ccc(Cl)cc3)CC2)cc1NCC1CCCO1 (stereo not shown) | -22.3
COc1ccc(Cn2cccc(NC(=O)Nc3cccc(OC)c3)c2=O)cc1 | 2.33
O=C(Nc1ccccc1N1CCN(C(=O)c2ccccc2)CC1)c1cc2ccccc2o1 | 9.86
CC(C)c1ccc(C(C(=O)NC2CCCC2)N(C(=O)c2csnn2)C2CC2)cc1 (stereo not shown) | -9.14

SMILES | hERG current change (%, negative = inhibition) at 10uM [%]
CCC(=O)c1ccc(OC(=O)/C=C/c2cc(OC)c(OC)c(OC)c2)cc1 | 15.7
Cn1c(SCC(=O)CC(=O)Nc2ccccc2)nnc1-c1ccc(O)cc1 | -6.85
O=C(CCl)Nc1ccc(S(=O)(=O)Nc2nccs2)cc1 | 21.6
COCCCNc1nc(=S)[nH]c2cc(OC)c(OC)cc12 | -4.86
CC1CCCC(NC(=O)COC(=O)CCC2CCCC2)C1C (stereo not shown) | 10.3
COc1ccc(/C=C/C(=O)c2ccccc2)c(OC)c1 | -0.927
O=C(CSc1nnc(-c2ccc(F)cc2)o1)NC1CCCCC1 | 4.29
Cc1ccc(-n2nc3c(=O)n(C(C)C(=O)NCCC4=CCCCC4)nc(C)c3c2C)cc1 (stereo not shown) | -51.4
CC(=O)N1N=C(c2ccc(C)c([N+](=O)[O-])c2)OC1(C)C | 11.9
O=c1c2c([nH]n1-c1ccccc1)CCSC2 | 25.9
COc1ccccc1OCC(=O)Nc1c2c(nn1-c1ccccc1)CS(=O)(=O)C2 | -8.22
COc1ccc(C)cc1C1=Nc2ccccc2C1(C)C | -11.7
Cc1nc2ccccc2n1CC(O)c1ccccc1 (stereo not shown) | 12.5
CCOCCn1c(C(C)C)nc2ccccc21 | -1.12
O=[N+]([O-])c1ccccc1-c1nc(-c2ccc(Br)o2)no1 | -2.7
O=C(Cn1nnc(-c2cccs2)n1)NCc1ccco1 | 26.6
O=[N+]([O-])c1cccc(S(=O)(=O)[N-]c2nc3ccccc3nc2-n2cc[n+](Cc3ccccc3)c2)c1 | -5.11
CCN(CC)C(=O)c1sc2nc(-c3cccs3)cc(-c3ccc(Cl)cc3)c2c1N | 14.3
CC(=O)N1CCN(CC(=O)Nc2c(Cl)cc(Cl)cc2Cl)CC1 | -54.2
O=C(NNC(=O)c1cccs1)c1ccc(S(=O)(=O)N2CCCCC2)cc1 | -17.4
COC(CNc1ncnc2c1cnn2C)OC | 9.17
COc1ccc(N(CC(=O)NCc2ccccc2OC)S(=O)(=O)c2ccccc2)cc1 | -14.2
